# Source: the supplement of paper PMC3334620
# Over roughly 33,000 sequences, “E-score (-0.5 to 0.5)” has its median near -0.056; the highest 2% begin near 0.38. Some of the results follow.
# Biological target: Stb4 (UniProt P50104)
# Test: PBM E-score (8-mer binding enrichment) (E-score (-0.5 to 0.5)); higher = stronger / more preferred TF binding; most listed sequences are background and not binding sites
# Settings: protein concentration: 200 nM; construct: GST-DNA-binding domain
# In short: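 Universal all-10-mer Agilent arrays, fresh or stripped once, were converted to double-stranded form by primer extension. GST-tagged yeast transcription factors from PURExpress in vitro transcription/translation, full-length or DNA-binding domain only, were applied at about 100-200 nM and detected with fluorescent anti-GST. After masliner normalisation, the Universal PBM Analysis Suite scored each ungapped eight-base word together with its reverse complement by E-score.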
row,Sequence,PBM E-score
1,ATAAAGCA,-0.157
2,ATATCAAG,-0.15
3,AGATGTAA,-0.0732
4,CCCCTGAG,-0.224
5,CATACAGG,-0.149
6,ACTGAGGG,-0.281
7,CTATCATC,0.0565
8,CGGTCCAA,0.0958
9,GTTTTCAA,-0.0295
10,GGAGCATA,0.238
11,ACTATGGG,-0.208
12,ACTTGGTC,0.0782
13,CCGCCACG,0.0619
14,CACCGTTC,0.0443
15,AGTCGTCC,0.0517
16,AAGCATAC,-0.108
17,ACTGCCAC,-0.227
18,GGCGCTGA,-0.161
19,ATCATGGC,0.011
20,ACATGTCG,-0.0783
21,ATGACAGA,-0.113
22,ATTACAGG,-0.0285
23,ACATATAA,-0.0928
24,AACTACGT,-0.145
25,GTTAGCCA,0.0717

row,Sequence,PBM E-score
1,CGCAATAA,0.0534
2,TAGTGCAA,-0.216
3,CATAACGA,-0.153
4,ATGTGTGC,-0.154
5,CTTGCGGA,0.112
6,ATCTAAGA,-0.112
7,ACGTAACA,-0.043
8,AAGGGAAC,-0.0269
9,ACGGCCGT,0.0769
10,GGACCGAA,0.322
11,CAACAGCG,-0.0446
12,CGGAGGAG,0.209
13,ACGCTCGG,0.42
14,AACGCCCT,-0.271
15,CTTAAGTC,0.029
16,GAGGGACC,-0.126
17,CAAATCGC,-0.184
18,AAAACGAT,-0.277
19,CAAGGAGA,-0.0842
20,ATTATACA,-0.0638
21,CCGAACCG,0.447
22,AGCGACAT,-0.197
23,GCCGGCAC,0.329
24,GGATGCAC,0.121
25,ATTCGAAA,-0.0533

row,Sequence,PBM E-score
1,AGTTGGTC,-0.0467
2,GGGGCCAC,-0.0381
3,ACAGAAAG,-0.101
4,AGAGTGTC,-0.0967
5,CTCAAAGA,-0.203
6,ATATGCAT,0.00238
7,GTATAGTA,0.0914
8,CAGGTCCC,-0.0608
9,AGCACATG,-0.166
10,GGCGGTGA,-0.0521
11,ACCTTTAC,0.0353
12,ACGGCTAA,0.264
13,GCAGTCGA,0.0133
14,CGCGCCCA,0.0532
15,TAACTTAA,0.0212
16,TATCAACA,-0.155
17,AACAGTGC,0.0266
18,CTTAATAA,0.183
19,GAGACAAA,-0.111
20,CACGAGTG,-0.322
21,GAAATAAC,0.138
22,CATAGTCG,-0.0983
23,CTGGTAGC,-0.224
24,ACCGGACG,0.146
25,AAGAATGC,0.0415

row,Sequence,PBM E-score
1,CGTATTGA,-0.271
2,ACCCTCCG,0.219
3,GTGGTAAC,0.0417
4,AGCGCTTG,-0.0436
5,ATATGGAA,-0.0997
6,CGTCAAAA,-0.117
7,AGTTCAGC,-0.143
8,ATGAAGTA,-0.112
9,TAAAAATA,-0.094
10,AATCTCGT,-0.0273
11,CCTCACAA,0.00427
12,GAATATAC,0.0907
13,CGATTGGA,-0.122
14,GTCGTCAA,-0.00905
15,CAAGGACA,-0.104
16,AACAACAG,-0.0489
17,ATATCTTG,-0.232
18,GGGCACTA,-0.102
19,ACTATAAA,-0.0593
20,AATCGACG,-0.118
21,GGAAGAAC,0.278
22,AATGTCGA,-0.212
23,AGGAGTCA,-0.0329
24,CGACGACA,-0.0341
25,ACCACGGC,0.151

row,Sequence,PBM E-score
1,CGTTCGAG,-0.222
2,ACGACTAC,-0.216
3,GCTGTGAC,-0.161
4,ATCCTCCA,-0.234
5,TCTGTTCA,-0.128
6,CTATAGGA,-0.178
7,CAACAGTG,0.0353
8,ACACCCCA,-0.124
9,CTACTACA,-0.0284
10,GAATTATA,0.0138
11,ACTATGAG,-0.131
12,CGATTGAG,0.0561
13,TTCATAAA,-0.0895
14,GGCGACGA,-0.0901
15,CGGGCTTC,0.276
16,ACAGGAAC,-0.133
17,AAATGCGA,-0.0548
18,ACGTGGCA,-0.256
19,AGGTTGTA,-0.0202
20,ACCCACGG,-0.00624
21,CCGCCTCG,0.173
22,CAATTGTC,-0.0439
23,ACACTACG,0.0379
24,GCATTGTA,-0.0628
25,GACTTATA,0.0812

row,Sequence,PBM E-score
1,ATCTCGGA,0.461
2,AGTGTCGA,0.0114
3,CCGTGCCA,0.0921
4,GGCAAAAC,0.136
5,CACGAAAC,-0.119
6,ACGATATA,-0.113
7,CACAGAAG,-0.211
8,CCTCCAAC,-0.242
9,TCATCCGA,0.473
10,TAGCAGCA,-0.269
11,CCGACGCG,0.397
12,ATATAAGC,-0.0633
13,TAATGGGA,-0.277
14,ACATGCTC,-0.101
15,GAAATTTA,-0.0277
16,ATAAAAGG,-0.0722
17,GGAAAGAC,0.182
18,TCTATTAA,-0.0416
19,AGTCCAAG,-0.149
20,GCAATACC,-0.069
21,GCGACCTA,-0.11
22,AGGACAAC,-0.109
23,GCTGGTGA,-0.0202
24,CCTAAGCG,-0.0227
25,CTGGCAAG,-0.185

row,Sequence,PBM E-score
1,CAGTAGAG,-0.221
2,AGCTTATG,-0.168
3,ATTATCTC,0.0642
4,TAAGGAAA,-0.0592
5,CGGTTCGA,0.206
6,AGAGCCGG,0.24
7,ATTGTTAC,0.0363
8,GGTGCAAC,0.163
9,GAGTCGGA,0.387
10,ACGCCGAG,0.352
11,AGCTCGCG,-5e-05
12,CACGACCG,-0.128
13,AGGACGCG,-0.01
14,AAAAGACG,-0.089
15,ACGTCTGC,-0.116
16,ACAAGTTA,0.0953
17,ATGAAGAA,-0.085
18,GCTCATAC,-0.231
19,GAAAGCCC,0.0933
20,ATCAAGCA,-0.0436
21,CTGCGGTC,-0.16
22,TATGACGA,-0.111
23,AGTCTATG,-0.315
24,CCTTAAAA,-0.413
25,ATCCATAG,-0.0183

row,Sequence,PBM E-score
1,CCAGTATA,-0.0596
2,GGCTGGTA,0.0186
3,CCGATTCC,0.348
4,AGGTGCAG,-0.204
5,CCATCGGG,0.297
6,AGTTGTGC,-0.0711
7,ATACTGGC,-0.19
8,AACGTGGT,-0.149
9,GATCCACC,-0.00862
10,GAATTCTC,0.181
11,AGAGCCCA,-0.152
12,ACTCCACA,-0.195
13,ATTCGGGC,0.301
14,CTACTCAC,-0.127
15,AACGGTTG,-0.165
16,GAGTATAA,-0.00582
17,TCCCTAAA,-0.213
18,AGACGGAA,0.285
19,ACGAATTA,-0.00352
20,AAAGTGAA,-0.126
21,CCCAATGC,-0.17
22,CCCTGGTC,-0.161
23,ACCTGAAT,-0.00737
24,GTAATTTA,0.0332
25,GCGCGGAC,0.0044

row,Sequence,PBM E-score
1,CGTTTTAA,-0.114
2,ACCAAAGG,-0.233
3,CTAACTCA,-0.262
4,ATCGAACA,-0.22
5,CTAGATTC,0.018
6,CGGATGGC,0.347
7,GCGTTCGA,-0.248
8,ACATTTTA,-0.0015
9,AGCCCAAA,-0.11
10,GGCGCAAA,0.021
11,CCCGCCAA,0.232
12,GCCAGAGC,-0.195
13,CGGGCGGC,0.186
14,ACAGCAGT,-0.0352
15,CGTGGGTC,-0.185
16,AGAGGGAC,-0.222
17,CGAAGCGA,0.0309
18,AAACTCAA,0.0329
19,ATGTTTCC,0.261
